According to the supplement of paper PMC10126150:
Sequences with one replicate were seen in a single cluster, so their values are uncertain.

System: ATP
Test: switch fluorescence ratio, 500 uM ATP over buffer (Cy3 cluster intensity, sum of 5 cycles each) (fold (ratio)); higher = stronger signal-on switching upon ATP binding; sequences stand for … in TCGTCGGCAGCGTCAGATGTGTATAAGAGACAGTTTTTTTTTTTTTTTTTTTTTTTTT…TC
Conditions: aptamer strand: ATP DNA aptamer (quencher-CACCTGGGGGAGTATTGCGGAGGAAGG + anchor), 100 nM annealed; ATP concentration: 500 uM; one replicate
Method in brief: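 Exposure to 500 uM ATP lasted 15 min at 22 °C before imaging, and a selection-buffer image was taken beforehand, for Cy3-labelled switching-strand clusters on a modified Illumina MiSeq flow-cell annealed to 100 nM quencher-labelled ATP aptamer. Five buffer/ATP cycles were run with NaOH stripping and re-annealing between them. The fluorescence ratio per cluster is summed target-cycle over summed buffer-cycle Cy3 intensity, averaged per switch-domain sequence. Clusters outside 100-1000 RFU were excluded.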

Row | Sequence | switch fluorescence ratio
1 | GCGCTAATTG | 1.06
2 | ACTGAACGGG | 1.4
3 | CACCCTGTCG | 1.05
4 | GGTTCTGAAG | 1.04
5 | TAGCACTCG | 1.09
6 | TTCGTCCCAC | 1.03
7 | TTCCATTCCC | 1.06
8 | GCGAAAAAA | 1.07
9 | GTGACTGAGC | 0.949
10 | TGCCTGCTAT | 0.975
11 | TCCGTCATGT | 1.16
12 | CGACGAGGTT | 1.11
13 | TACTGTTGAG | 0.977
14 | GGGCGCCTGT | 0.957
15 | TGACCCCTGC | 1.19
16 | GAGCCTGAGT | 1.02
17 | CGACGGTCAA | 2.17
18 | ACAGCTTAGT | 1.02
19 | AGGACGCGG | 1.1
20 | TCATGGGAGC | 1.03
21 | CGATCCTCGG | 1.01
22 | TTATGTTGGA | 1.01
23 | CGCAATGAGA | 1.9
24 | ATAAGACGGG | 1.01
25 | ATAAAGTTAG | 0.977

Row | Sequence | switch fluorescence ratio
26 | AAGTGTACGG | 1.03
27 | TCCATGGCAG | 1.11
28 | CATAGTCTGA | 1.04
29 | AGGGCACTCT | 1.02
30 | ACCCGGATCC | 1.09
31 | CTGGTATCCA | 1
32 | CATCGTACAA | 1.16
33 | ATAAGTAAAA | 1.05
34 | GAGGTGTAAT | 0.975
35 | GGGCTCCTTC | 1.06
36 | AACGACGTAT | 1.01
37 | ACCAGCTCCG | 1.25
38 | AGGTTCGCA | 0.996
39 | CAGTAATACT | 7.03
40 | CGCAAAACAA | 1.11
41 | TCATTGTGGA | 1.06
42 | CGGCCAGCCA | 1.02
43 | CAGGGATCCG | 0.98
44 | TATGAAGATG | 0.997
45 | GAGAGCTCAT | 1.04
46 | TCGGCGATAC | 3.33
47 | CTTTTCTGT | 1.01
48 | TTCGTCCGAT | 1.21
49 | TCGGTATGGT | 1.01
50 | GACGTAAGGG | 1.1

Row | Sequence | switch fluorescence ratio
51 | CATCGTTATT | 0.995
52 | GATAAAATAT | 1
53 | CTTATGGGTG | 1
54 | ATATGGCATT | 0.988
55 | ACGTATTTCT | 1.11
56 | CTCTACATGG | 1.09
57 | TGGGGCCGGA | 0.994
58 | GGACTCTATG | 1.01
59 | GCACCGGTTT | 0.989
60 | GGCGATTTAG | 0.962
61 | TACAAGATAT | 1.03
62 | TGTTAGAGCT | 0.945
63 | TAATAGTAGG | 0.985
64 | TGGTATATAG | 0.977
65 | TATGATGTGT | 1
66 | ACAGGGGGG | 0.992
67 | CACTCTCAAA | 1.04
68 | GGAACTGGTC | 1.01
69 | CGAGAGGCA | 1.02
70 | GAGATGGTAA | 1.04
71 | GCTCGAAAAA | 0.995
72 | AATTTACTAG | 1.05
73 | GATCGTTCTC | 0.958
74 | TGTTCAGGCA | 1.02
75 | CGCTGCGAGT | 0.979

Row | Sequence | switch fluorescence ratio
76 | GCCCCAGCAG | 1.13
77 | ACCTTGATTT | 1.02
78 | AATTATCTTA | 0.958
79 | ATATCGCTCC | 1.11
80 | CCAAGAACTT | 1.03
81 | GTCAACTACG | 1.08
82 | ACCGGGAGTA | 1.04
83 | TTAATCAACC | 1.35
84 | TGTTCCGGAA | 1.09
85 | CATGTGATCG | 0.989
86 | CAAGCATATG | 1.04
87 | TCTTAGCTGC | 2.97
88 | AGCTGGGAG | 0.993
89 | AGTAAGCGTC | 1
90 | CGGGTTACGT | 0.949
91 | CATATCCGGT | 1.03
92 | GATAAGAAGA | 1.01
93 | GCAAAGTTGT | 0.995
94 | CGGTTGACAC | 1
95 | CGGTTGTAG | 0.963
96 | GTCAGAGGAC | 0.929
97 | ACGAGTACGC | 1.03
98 | TTGAGCTTGC | 1.06
99 | TTGGTTTAAC | 0.994
100 | TATTTCCTAT | 0.971

Row | Sequence | switch fluorescence ratio
101 | ATTAGGTCAA | 0.983
102 | ACCGTCGCT | 1.1
103 | GGTCGACAGT | 0.995
104 | GGGGTCCTGT | 1.01
105 | GGTGGGTGCC | 1.04
106 | CAGTGGCGGC | 0.951
107 | CAAGTCAGGG | 1.03
108 | TATGTATAGC | 1.02
109 | AAACTGGCTT | 0.98
110 | GGATGCGCTG | 0.967
111 | CGGACAGGGC | 1.08
112 | CGAACAAGTC | 0.997
113 | GCGATAGTGA | 1
114 | GACCATGTT | 0.956
115 | TAGACCTAGA | 0.977
116 | TCATTTCGTG | 0.97
117 | TTTGACCGC | 1.09
118 | GCTTCCTGTA | 1.06
119 | AGATCTGAAC | 0.974
120 | TTACTGCCCG | 1.11
121 | ATTGATATAG | 0.994
122 | TGCCGCATAA | 5.12
123 | CCTCGATAGG | 1.06
124 | GAGGTAGAGC | 1.06
125 | GGGAATGAAG | 1.01

Row | Sequence | switch fluorescence ratio
126 | AGGTCTGCGT | 1.03
127 | ACTTTGAACA | 0.995
128 | ATCAACGACG | 1.05
129 | ATATCCAAGC | 1.05
130 | ACAGCGTCGG | 0.978
131 | AACGAACTTT | 1.2
132 | CCGTACGTCG | 0.959
133 | TTGGGGGTAC | 1.09
134 | TATTAACCGG | 1.01
135 | CGAAAAACTG | 1.04
136 | ATTATTTAGC | 0.997
137 | GATCTAGATA | 1.04
138 | CTTAAAGTGG | 0.998
139 | CGATCGGCTT | 1.04
140 | AAATATACTT | 1.01
141 | TTTCTTGACT | 1.01
142 | AAGTCCT | 0.999
143 | GCCACCGAGG | 1.04
144 | ATAATTAGTT | 1
145 | GGTCGCACGT | 1.09
146 | GCGGATAGGA | 0.979
147 | ACCGGGCGCG | 1.05
148 | GTTCATAATG | 1
149 | GGGTTATTAC | 0.999
150 | ACGCTCAGCA | 1.1

Row | Sequence | switch fluorescence ratio
151 | ATGTCGAAGC | 0.976
152 | AGCGTAAATT | 0.991
153 | TTCGTGTGTA | 1.01
154 | TGAATCCGCC | 5.97
155 | TAAACTAGA | 0.95
156 | ATCCCATACT | 1.19
157 | GATCTCCCGC | 1.64
158 | TGAGGTGTGA | 1.06
159 | GCTTATTGGT | 0.94
160 | TCATAGCCTT | 1.07
161 | AGTTTTATGA | 0.944
162 | CTTCTACTGC | 1.06
163 | CACTTGAAGA | 1.02
164 | TGAGCTGAGC | 1.04
165 | TCGTATGTAC | 1.09
166 | ACGGTGGGCG | 0.967
167 | GGATCGTGT | 0.988
168 | GAGGCCAAGA | 1
169 | ATTCAGGTCT | 0.967
170 | ACCCTCCCAC | 2.4
171 | CAGCTAGCAA | 3.45
172 | ATAATTCCCG | 1
173 | AGGCTAGGGT | 0.967
174 | CCAATTAGGC | 1.04
175 | ACCAATATTT | 0.987

Row | Sequence | switch fluorescence ratio
176 | GATAGGGAAG | 0.976
177 | TTTCCCCCTG | 1.58
178 | TCGTAAGCAG | 1.02
179 | AGTGCAATCT | 1.05
180 | GTACCCCGC | 1.22
181 | ACTGTAGTA | 1.08
182 | TATGTCTAAT | 1.02
183 | TCAAGACATG | 0.954
184 | ACGAACTCAA | 1.77
185 | CAGATACTGG | 1.03
186 | ATGAATGCTG | 0.993
187 | GGTACGCCCT | 1.02
188 | TTCTCCTTTC | 1.1
189 | TGCGGGGTTG | 0.995
190 | CAGGGGACCA | 1.02
191 | AGCAAAGGAC | 1.28
192 | ATACCCAGAT | 1.03
193 | ATCGTGGCGG | 0.991
194 | ACTGCGACCC | 1.26
195 | TGCTACAAAG | 1
196 | TGATATTGTC | 1.02
197 | AGTTCGAGCT | 0.974
198 | TTAAATCAGG | 1.01
199 | CTATGCAAGT | 1.28
200 | AGCTCGACGA | 1.02
